# Laboratory results as given in the supplement of paper PMC9446081.
# Among all 39,000 compounds or so, about 220 (0.56%) showed activity. The list shows a part of the results.
# System: Escherichia coli K-12 BW25113
# Test: relative growth (OD600 normalised to plate interquartile mean) (fraction); higher = less growth inhibition, active = 0.2 or less
# Details: 50 µM; LB; incubation time: overnight (16-24 h)
# 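Further: static incubation at 37 °C against the wild-type strain, values averaged over two biological replicates.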
row,Compound,relative growth
1,C[C@H]1CN([C@@H](C)CO)C(=O)Cc2cc(NS(C)(=O)=O)ccc2O[C@H]1CN(C)C(=O)Nc1ccc(F)cc1,inactive: 1.04
2,CC(C)C#Cc1cnc2c(c1)C(=O)N([C@H](C)CO)C[C@@H](C)[C@H](CN(C)C(=O)c1ccc3c(c1)OCO3)O2,inactive: 0.99
3,C[C@@H]1CN([C@H](C)CO)C(=O)c2c(c3ccccc3n2C)-c2ccccc2CO[C@@H]1CN(C)S(=O)(=O)c1ccc(C(F)(F)F)cc1,inactive: 1.03
4,NNC(=O)CS(=O)(=O)c1ccc(Cl)cc1,inactive: 0.989
5,Cc1ccc(N2C(=O)c3ccccc3[C@@H](C(=O)NCCN3CCOCC3)[C@@H]2c2ccc(CO)cc2)nc1,inactive: 0.966
6,COCC(=O)Nc1ccc2c(c1)C(=O)N(C)C[C@H](OC)[C@@H](C)CN(Cc1cccc(F)c1)[C@H](C)CO2,inactive: 0.987
7,C[C@H]1CN([C@@H](C)CO)C(=O)c2cccc(NS(C)(=O)=O)c2O[C@H]1CN(C)Cc1ccc2c(c1)OCO2,inactive: 1.01
8,Cc1noc(C)c1S(=O)(=O)Nc1ccc2c(c1)C(=O)N([C@H](C)CO)C[C@@H](C)[C@H](CN(C)CC1CCCCC1)OCCCC[C@@H](C)O2,inactive: 0.988
9,C[C@@H]1CCCCO[C@H](CN(C)Cc2ccccc2)[C@@H](C)CN([C@H](C)CO)C(=O)c2cc(NC(=O)Nc3cccc4ccccc34)ccc2O1,inactive: 0.986
10,C[C@@H]1CN([C@@H](C)CO)C(=O)c2cc(NC(=O)CCC(F)(F)F)ccc2O[C@@H](C)CCCCO[C@@H]1CN(C)C(=O)Nc1ccc(C(F)(F)F)cc1,inactive: 1.01
11,COc1ccc(NC(=O)N(C)C[C@H]2Oc3c(NC(=O)CCCCCC(=O)Nc4ccccc4N)cccc3C(=O)N([C@H](C)CO)C[C@H]2C)cc1,inactive: 0.998
12,C=CCNC(=O)[C@H]1[C@@H]2C(=O)O[C@@H](c3ccccc3)[C@@H](c3ccccc3)N2[C@@H](c2ccc(OCCO)cc2)[C@]12C(=O)N(C(=O)OCCOC)c1ccc(C#CC3(O)CCCCCC3)cc12,inactive: 1.01
13,C[C@H]1CN([C@H]2C[C@@H](O)[C@@H](CO)O2)C(=O)NC1=O,inactive: 0.958
14,COC(=O)C1=C(C)NC(C)=C(C(=O)NCCCN2CCC(c3ccccc3)(c3ccccc3)CC2)[C@@H]1c1ccc([N+](=O)[O-])cc1,inactive: 0.941
15,C[C@@H]1CCCCO[C@@H](CN(C)C(=O)c2ccccc2)[C@@H](C)CN([C@H](C)CO)C(=O)c2cc(NC(=O)Nc3ccc4c(c3)OCO4)ccc2O1,inactive: 1.01
16,CC(C)(c1cc(Br)c(O)c(Br)c1)c1cc(Br)c(O)c(Br)c1,inactive: 0.959
17,Cn1c(=O)cc(N2CCCC(N)C2)n(Cc2ccccc2C#N)c1=O.O=C(O)c1ccccc1 (stereo unspecified),inactive: 1.05
18,NCc1ccc(Br)s1,inactive: 0.989
19,CCC(CC)c1ccc(O)cc1,inactive: 0.994
20,C[C@H](CO)N1C[C@H](C)[C@H](CN(C)S(=O)(=O)c2ccc(F)cc2)Oc2ncc(Br)cc2C1=O,inactive: 0.985
21,C[C@@H]1CN([C@@H](C)CO)C(=O)c2cccc(NC(=O)c3ccncc3)c2O[C@H]1CN(C)C(=O)Nc1ccc2c(c1)OCO2,inactive: 0.991

row,Compound,relative growth
1,C[C@@H]1CN([C@H](C)CO)C(=O)CCCn2nncc2CO[C@@H]1CN(C)Cc1ccc2c(c1)OCCN2C,inactive: 0.994
2,C[C@@H]1CN([C@H](C)CO)C(=O)c2cc(NC(=O)Nc3cccc4ccccc34)ccc2O[C@@H]1CN(C)C(=O)Nc1ccc(F)cc1,inactive: 0.999
3,CNC[C@@H]1OCCCC[C@@H](C)Oc2ccc(NC(=O)Nc3ccc(C(F)(F)F)cc3)cc2C(=O)N([C@@H](C)CO)C[C@H]1C,inactive: 0.965
4,O=C(O)C[C@H]1C=C[C@@H](NC(=O)c2ccncc2)[C@H](CO)O1,inactive: 0.998
5,COc1cccc(C#Cc2ccc3c(c2)O[C@H](CN(C)C(C)=O)[C@@H](C)CN([C@H](C)CO)S3(=O)=O)c1,inactive: 0.991
6,C=C1C(=O)C(O)[C@@H]2O[C@@H]2C1=O (stereo partly specified),inactive: 0.582
7,CC(=O)N1CCC[C@H]1C(=O)O,inactive: 0.992
8,C[C@H]1CN([C@@H](C)CO)C(=O)c2cccc(NC(=O)C3CCOCC3)c2O[C@H]1CN(C)Cc1ccc2c(c1)OCO2,inactive: 0.976
9,O=c1[nH]c(=O)n(C2CC(O)C(CO)O2)cc1I (stereo unspecified),inactive: 1.06
10,Cc1ccc(OC(=O)N(C)C[C@H]2OCc3ccccc3-c3ccccc3C(=O)N([C@H](C)CO)C[C@H]2C)cc1,inactive: 1.03
11,C[C@@H]1CN([C@@H](C)CO)C(=O)c2cc(NC(=O)Nc3cccc4ccccc34)ccc2O[C@@H](C)CCCCO[C@H]1CN(C)C(=O)NC1CCCCC1,inactive: 1.03
12,CN1CCN(C(=O)C[C@@H]2CC[C@H]3[C@@H](COC[C@@H](O)CN3C(=O)C3CCOCC3)O2)CC1,inactive: 0.997
13,O=C(C[C@@H]1CC[C@H]2[C@@H](COC[C@H](O)CN2CC2CCOCC2)O1)N1CCOCC1,inactive: 1
14,O=C(C[C@@H]1CC[C@@H]2[C@H](COC[C@H](O)CN2Cc2cc(F)ccc2F)O1)N[C@@H]1CCN(Cc2ccccc2)C1,inactive: 0.989
15,Cl.OC(c1cc(C(F)(F)F)nc2c(C(F)(F)F)cccc12)C1CCCCN1 (stereo unspecified),inactive: 0.303
16,COc1ccc(S(=O)(=O)N(C)C[C@@H]2Oc3ccc(NC(=O)CCN4CCOCC4)cc3CC(=O)N([C@@H](C)CO)C[C@H]2C)cc1,inactive: 0.983
17,CN(C)CCCCNC(=O)[C@@H]1C[C@@H]2C(=O)N[C@@H](CCCC[N+](C)(C)C)C(=O)N2[C@@H]1c1cccc(OCCO)c1,inactive: 0.973
18,COc1ccccc1S(=O)(=O)N1C[C@@H](O)COC[C@@H]2O[C@H](CC(=O)O)CC[C@H]21,inactive: 0.994
19,C[C@@H]1CN([C@@H](C)CO)C(=O)CCCn2cc(nn2)CO[C@H]1CN(C)C(=O)CCCN(C)C,inactive: 1.01
20,CCS(=O)(=O)NCC[C@H]1CC[C@H](NS(=O)(=O)c2cccc(F)c2)[C@@H](CO)O1,inactive: 0.998
